The whole screen tested about 110,000 compounds, of which about 230 (0.21%) showed an effect of 50% or more. Some of the results follow.
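Further: 30 min substrate incubation versus DMSO and 10 µM JCP410 controls.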

Chain of DPAP1 (Q8IIJ9 whole entry, looked up): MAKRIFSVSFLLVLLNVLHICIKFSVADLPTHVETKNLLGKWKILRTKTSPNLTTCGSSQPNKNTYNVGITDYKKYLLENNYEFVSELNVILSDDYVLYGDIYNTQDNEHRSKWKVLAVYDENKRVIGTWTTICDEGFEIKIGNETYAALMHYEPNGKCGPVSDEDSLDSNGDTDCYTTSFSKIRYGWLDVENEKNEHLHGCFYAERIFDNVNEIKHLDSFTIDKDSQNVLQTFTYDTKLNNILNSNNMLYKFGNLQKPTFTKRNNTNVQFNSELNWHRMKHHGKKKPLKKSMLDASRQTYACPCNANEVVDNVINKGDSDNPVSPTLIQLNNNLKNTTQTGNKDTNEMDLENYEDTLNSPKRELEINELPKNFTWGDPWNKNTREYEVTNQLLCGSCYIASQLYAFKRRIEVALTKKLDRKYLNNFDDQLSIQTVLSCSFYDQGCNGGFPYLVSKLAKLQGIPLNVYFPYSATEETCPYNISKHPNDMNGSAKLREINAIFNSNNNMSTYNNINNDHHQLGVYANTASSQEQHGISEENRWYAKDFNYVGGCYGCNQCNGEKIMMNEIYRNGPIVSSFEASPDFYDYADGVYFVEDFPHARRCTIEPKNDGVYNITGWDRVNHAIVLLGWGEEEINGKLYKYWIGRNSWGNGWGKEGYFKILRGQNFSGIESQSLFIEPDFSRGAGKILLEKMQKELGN

This test addresses DPAP1 (Plasmodium falciparum, UniProt Q8IIJ9). Briefly: primary screen, percent inhibition; read by cleavage of a fluorogenic dipeptide substrate; higher = more effect of the substance. Also noted: species or system P. falciparum D10 trophozoite lysates; single well.
As to `Cc1cccc(CN2CCc3c([nH]c4ccccc34)C2)c1`, the “% Inhibition @ 10 uM” value is given as 3.1%.
The result for `COc1cccc(CN2CCN(C3CCCCCC3)CC2)c1OC` reads 3.56%; that for `CCc1ccc(C2CC(c3ccccc3OC)n3ncnc3N2)cc1` (centres unmarked), -1.86%; that for `Cc1cc(NC(=O)C2CC3CCC2C3)no1` (centres unmarked), 3.44%.
With `CC1CCCC(C(=O)O)N1C(=O)CCS` (centres unmarked) the figure was -0.807%.
For `O=C(NCCN1CCN(c2ccccc2)CC1)C12CC3CC(CC(C3)C1)C2`, the “% Inhibition @ 10 uM” value was -0.267%.
On to `COc1cccc(-c2nc(SCC(=O)N3CCCC3)n3[nH]c(=O)cc3n2)c1`, for which the “% Inhibition @ 10 uM” value is -5.72%.
For `CCCC[C@H](NC(=O)C(Cc1c(F)cccc1F)NC(=O)c1ccc(-c2ccccc2Cl)cc1)C(=O)c1nc2ncccc2o1` (some centres unmarked), the “% Inhibition @ 10 uM” value is listed as -5.2%.
The result for `CC(C)(C)Oc1ccc(C(=O)c2ccccc2)s1` reads -3.23%.
For `C=CCc1c(O)nc2n(c1=O)CCCS2`, the “% Inhibition @ 10 uM” value was -2.32%.
With `COc1cccc(C2C(C#N)=C(N)N(c3nc[nH]n3)C3=C2C(=O)CCC3)c1OC` (centres unmarked), the “% Inhibition @ 10 uM” value was -5.63%.
The result for `Clc1cccc(CN2CCN(Cc3ccccc3)CC2)c1` reads 3.16%.
Take `COCCCN(C(=O)Nc1ccccc1)C(C)c1ccccn1` (centres unmarked): the “% Inhibition @ 10 uM” value is -3.26%.
`NC(=S)CCCc1c[nH]c2ccccc12`: the “% Inhibition @ 10 uM” value is on record as -3.81%.
The result for `CCN1C(=O)/C(=C/c2ccc(Br)o2)S/C1=N/c1ccc(OC)cc1` reads 15.6%.
Take `COC(=O)c1sccc1NC(=O)c1c(C)nn(-c2ccccc2)c1-n1cccc1`: the “% Inhibition @ 10 uM” value is on record as -3.35%.
With `Cc1ccc(-n2c(S)nnc2-c2ccccc2)cc1`, the “% Inhibition @ 10 uM” value stood at 0.0538%.
With `Cc1occc1C(=O)Nc1cccc(C(F)(F)F)c1` the figure was -2.46%.
With `CC(C)(C)C1C/C(=C/c2ccccn2)C(=O)/C(=C/c2ccccn2)C1` (centres unmarked) the figure was -4.65%; with `COc1cc(/C=C2/SC(=O)N(CC(=O)Nc3ccccc3C)C2=O)ccc1O`, -5%; with `O=C1c2ccccc2C(=O)N1c1cccc(N2C(=O)c3ccccc3C2=O)n1`, 0.431%.
With `COc1ccc(Br)cc1C1SCCN1S(=O)(=O)c1ccc(C)cc1C` (centres unmarked) the figure was -5.26%.
Turning to `O=C(CCC(=O)Nc1ccc(F)c(Cl)c1)Nc1ccc(F)c(Cl)c1`, the “% Inhibition @ 10 uM” value was -3.18%.
In the case of `C=CCn1c(SCC(=O)NC(N)=O)nc2sc3c(c2c1=O)CCC3`, the “% Inhibition @ 10 uM” value is listed as 2.68%.
With `CC1(C)CC(N2C(=O)c3ccccc3C2=O)CC(C)(C)N1` the figure was -1.82%; with `COc1cc(-c2c(C(=O)O)nc3ccccc3c2C(=O)O)cc(OC)c1OC`, 17.1%.
The result for `CC1Cc2c([nH]c3ccccc23)C(C)N1` (centres unmarked) reads -1.64%.
With `CCOc1ccc(/C=C2\N=C(c3ccc(Cl)cc3Cl)OC2=O)cc1`, the “% Inhibition @ 10 uM” value is -2.41%.
With `Fc1cccc(Cl)c1C1C=C(c2ccc(Br)s2)Nc2ncnn21` (centres unmarked) the figure was -5.05%; with `CCOc1ccc(NC(=O)c2ccc(C(C)(C)C)cc2)cc1`, -3.43%; with `COc1cccc(/C=C2\S/C(=N/c3ccc(Cl)cc3)N(C)C2=O)c1OCC(=O)O`, -4.15%.
With `CC(C)(C)NC(=O)CN(c1ccc2c3c(cccc13)CC2)S(C)(=O)=O` the figure was -0.949%; with `N#CC1=C(N)OC2=C(C(=O)c3ccccc3C2=O)C1c1cccs1` (centres unmarked), 5.45%; with `CC1CN(c2ccccc2[N+](=O)[O-])CCN1` (centres unmarked), -1.91%.
Take `CCCS(=O)(=O)N1CCN(C(=O)c2cccc(OC)c2OC)CC1`: the “% Inhibition @ 10 uM” value is -3.06%.
With `O=C(NCCCN1CCOCC1)C1CCCN(c2ncnc3c2sc2cccc(F)c23)C1` (centres unmarked) the figure was 2.65%.
The result for `CCC(=O)Nc1c(C(=O)N(C)Cc2ccco2)cnn1-c1ccccc1Cl` reads -2.98%.
Turning to `CC1(C)CC1(C#Cc1ccccc1)C(=O)O` (centres unmarked), the “% Inhibition @ 10 uM” value was -4.98%.
Turning to `COc1ccc(/C(C)=N/OCC(=O)Nc2sc3c(c2C#N)CCCC3)cc1OC`, the “% Inhibition @ 10 uM” value is listed as 1.96%.
The result for `COC(=O)c1ccccc1-c1ccc(/C=C2/C(=N)N3N=C(CC(C)C)SC3=NC2=O)o1` reads -1.26%; that for `CC1=CC(C)(C)N(CC(=O)c2ccc([N+](=O)[O-])cc2)c2ccccc21`, -0.693%; that for `O=C(CCn1c(=O)c2cccn2c2cccnc21)NCCc1ccc(Cl)cc1`, 4.65%.
With `CCOc1ccc(-n2nnc(-c3nsc(NC(=O)c4ccccc4Cl)n3)c2C)cc1` the figure was 7.25%; with `Cc1cc(C)c(C(=O)NCC2CCCO2)c(C)c1` (centres unmarked), -2.86%; with `CCOc1ccc(C2C(C(=O)Nc3ccc(F)cc3)=C(C)Nc3ncnn32)cc1OC` (centres unmarked), 4.67%.
For the compound `CC(=O)Nc1ccc(C(=O)Nc2cccc(Cl)c2Cl)cc1`, the “% Inhibition @ 10 uM” value is 3.03%.
In the case of `c1coc(-c2nnc3n2C2(CCCC2)Cc2ccccc2-3)c1`, the “% Inhibition @ 10 uM” value was 5.32%.
Turning to `O=C(CN1CC(c2ccccc2)CC1=O)Nc1cccc2ccccc12` (centres unmarked), the “% Inhibition @ 10 uM” value is listed as -3.71%.
With `CCOC(=O)CCS(=O)(=O)c1ccc2ccccc2c1`, the “% Inhibition @ 10 uM” value is given as -0.25%.
The result for `CC(Oc1ccc(C(C)C)cc1)C(=O)N(Cc1ccco1)C1CCS(=O)(=O)C1` (centres unmarked) reads 0.569%.
